Reference: the RNAGym collection of RNA variant scans (doi:10.1093/nar/gkz1192)
The source gives no read counts; variants with many changes may rest on few reads.

B1: CPEB3 Ribozyme (parent)
chain: UAACAGGGGGCCACAGCAGAAGCGUUCACGUCGCAGCCCCUGUCAGAUUCUGGUGAAUCUGCGAAUUCUGCUGUAUAUCUC

Variants of: B1
Assay: self-cleavage, relative activity (ratio to wild type); higher = more cleavage; in vitro, sequencing
Summary of the method: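 For each CPEB3 ribozyme variant, relative activity is its cleaved/total read fraction divided by the unmutated ribozyme's. Barcoded error-prone PCR libraries were transcribed by T7 RNA polymerase (5 hours, 37°C) and held in DNase I for 15 min before an EDTA stop, with cleavage occurring throughout. Template-switching reverse transcription and Illumina sequencing were used to read the RNAs. A 5-read minimum applied, and results are the mean of three batches.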

Row | Variant | self-cleavage
1 | A20G A47G U49C | 0.35
2 | A20G A47G U58A | 0.37
3 | A20G A47G U60C A64G | 0.18
4 | A20G A47U U51C | 0.64
5 | A20G A47U U72C | 0.11
6 | A20G A56G A57G A77G | 0.38
7 | A20G A56G C59U | 0.37
8 | A20G A56G U69A | 0.23
9 | A20G A56U U72C | 0.51
10 | A20G A57G U60C A65U U78C | 0.12
11 | A20G A64G A65G U72C | 0.24
12 | A20G A64G A77G | 0.44
13 | A20G A64G C79A | 1.01
14 | A20G A64G U69C | 0.19
15 | A20G A64U A77G | 0.34
16 | A20G C23A U26A U69C U76G | 0.04
17 | A20G C23A U54C A57G G61C U67A | 0.05
18 | A20G C23A U58C | 0.18
19 | A20G C23U C27U A28G U31A U58C | 0.23
20 | A20G C23U U43A U60C U74C | 0.19
21 | A20G C27U U31C A35G A45G U60A C62U | 0.02
22 | A20G C29A U43C | 0.09
23 | A20G C29A U43C U51C | 0.29
24 | A20G C29G A56U | 0.07

Row | Variant | self-cleavage
25 | A20G C29U G30U U51A U69A U72A U78C | 0.13
26 | A20G C29U U49C C62G U67C U72C A75G | 0.08
27 | A20G C32U A45U C62U U72G | 0.04
28 | A20G C32U A65G | 0.06
29 | A20G C32U U43C U66C | 0.09
30 | A20G C32U U67C U72C A75G | 0.13
31 | A20G C32U U72A U80C | 0.25
32 | A20G C34A U67C C68A | 0.13
33 | A20G C37U A65G | 0.38
34 | A20G C37U C50G A65U | 0.07
35 | A20G C37U U58C U69C U72C | 0.07
36 | A20G C37U U72C A75U | 0.64
37 | A20G C38A U41C A47G | 0.2
38 | A20G C39A U67C | 0.33
39 | A20G C39A U69C | 0.09
40 | A20G C39G U69C | 0.17
41 | A20G C40A U41C | 0.47
42 | A20G C40U U41A U51A U78C | 0.5
43 | A20G C44U A57G U66C | 0.07
44 | A20G C59U U60C U78A | 0.52
45 | A20G G22A A28U U31A A57G U67C U72C | 0.06
46 | A20G G22A U51A A65G U72C | 0.13
47 | A20G G22C U26A A28U U43A U66C | 0.04
48 | A20G G24A A45G | 0.42

Row | Variant | self-cleavage
49 | A20G G24C A57G A77U | 0.14
50 | A20G G30A G42U | 0.09
51 | A20G G30A U67C | 0.18
52 | A20G G30C A47U U48C U60G | 0.06
53 | A20G G33A A35U A45G U58C U69C U74C | 0.05
54 | A20G G33A A47G U67G U69G | 0.04
55 | A20G G33A C38U G52A U67C | 0.05
56 | A20G G33A G61A | 0.23
57 | A20G G36C A75G | 0.15
58 | A20G G36C U43A | 0.09
59 | A20G G36U A45G U78C | 0.05
60 | A20G G36U U48C | 0.41
61 | A20G G36U U80A | 0.13
62 | A20G G42U U48C U49A | 0.14
63 | A20G G46A A56G | 0.21
64 | A20G G46C A47C A64G | 0
65 | A20G G52A A64G | 0.6
66 | A20G G52U U54C A56G U78A | 1.14
67 | A20G G55C U60C U69C | 0.25
68 | A20G G63A U80C | 0.82
69 | A20G G63U U76G | 1.16
70 | A20G U25A C40U U51C U72C | 0.07
71 | A20G U25A C50U U66C | 0.15
72 | A20G U25A U26C U67C | 0.14

Row | Variant | self-cleavage
73 | A20G U25C A28U | 0.08
74 | A20G U25C A35G U49C A65G | 0.06
75 | A20G U25C A35U A65U U74C A75G | 0.07
76 | A20G U25C A45C U54C U74C A75G | 0.12
77 | A20G U25C A56G G61A | 0.07
78 | A20G U25C A56U U80C | 0.57
79 | A20G U25C A64G U67A U76C A77U | 0.39
80 | A20G U25C A65U | 0.32
81 | A20G U25C C27A A65U A75U | 0.09
82 | A20G U25C U26A G53U U67C A77U U80C | 0.11
83 | A20G U25C U31C | 0.3
84 | A20G U25C U31C A45U A77G | 0.08
85 | A20G U25C U31C U66C U67A U78C | 0.09
86 | A20G U25C U31G C44U G53A A77G | 0.06
87 | A20G U25C U41C U43C | 0.06
88 | A20G U25C U41C U48C U51A A57G U60A | 0.1
89 | A20G U25C U43A G46U | 0.26
90 | A20G U25C U43A U72A U80C | 0.16
91 | A20G U25C U54A | 0.15
92 | A20G U26A A28G U72A | 0.04
93 | A20G U26A A35C A56G A57G U78C | 0.13
94 | A20G U26A A35G G42A G53A U67C | 0.2
95 | A20G U26A A35G U43C U54C | 0.41
96 | A20G U26A A35U C37G U76G | 0.22

Row | Variant | self-cleavage
97 | A20G U26A A45U | 0.27
98 | A20G U26A C38U U41C C44U U54A C79A | 0.06
99 | A20G U26A G30U G42A | 0.19
100 | A20G U26A U31A | 0.31
101 | A20G U26C A28G A35G U43C U49C U80C | 0.39
102 | A20G U26C A45C U72C | 0.32
103 | A20G U26C A45G | 0.32
104 | A20G U26C A45U U72C A75G | 0.06
105 | A20G U26C A75G | 0.19
106 | A20G U26C C29A U49C A64G | 0.14
107 | A20G U26C G42C | 0.3
108 | A20G U26C G55U U67A U69C | 0.15
109 | A20G U26C U31A G46A U51C | 0.07
110 | A20G U26C U31A U69C | 0.16
111 | A20G U26C U41A U60C A65G U66C U78C | 0.17
112 | A20G U26C U60C C79U | 0.06
113 | A20G U26G A35G U48A | 0.27
114 | A20G U31A A35U U67A | 0.18
115 | A20G U31A A57G | 0.34
116 | A20G U31A C34A U48C A77U | 0.05
117 | A20G U31A G63U | 0.3
118 | A20G U31A U41C | 0.23
119 | A20G U31A U78A | 0.23
120 | A20G U31C A45G U60C | 0.78

Row | Variant | self-cleavage
121 | A20G U31C A64G U67A U74A | 0.25
122 | A20G U31C A64U U72G | 0.12
123 | A20G U31C A65G A77U | 0.15
124 | A20G U31C U41A | 0.09
125 | A20G U31C U41C U72C | 0.42
126 | A20G U31C U48A | 0.14
127 | A20G U31C U49C G55A A56G | 0.34
128 | A20G U31G A64G | 0.19
129 | A20G U31G C79U | 0.23
130 | A20G U41A A45G A56G U74C U80C | 0.1
131 | A20G U41A G61A U66C | 0.11
132 | A20G U41A G61C A75G | 0.38
133 | A20G U41A U49C | 0.2
134 | A20G U41A U49C U67C A75G | 0.1
135 | A20G U41A U49C U67C U74C | 0.1
136 | A20G U41C A45U C59U A65G | 0.15
137 | A20G U41C A64G U74G | 0.75
138 | A20G U41C A65G | 0.19
139 | A20G U41C A65U U72C | 0.35
140 | A20G U41C C59U U69A | 0.26
141 | A20G U41C G46A G52C U60C A64G A65G | 0.06
142 | A20G U41C G53A U67C | 0.96
143 | A20G U41C U78G | 1.13
144 | A20G U43A A45U | 0.46

Row | Variant | self-cleavage
145 | A20G U43A U67C | 1.18
146 | A20G U43A U74C | 1.22
147 | A20G U43C A47G | 0.45
148 | A20G U43C U49A | 0.3
149 | A20G U43C U67C U72C | 0.51
150 | A20G U43G U67C | 0.15
151 | A20G U48A U58G A77U C79U | 0.08
152 | A20G U48A U80A | 0.14
153 | A20G U48C A65U | 0.09
154 | A20G U48C A77U | 0.37
155 | A20G U48C U51A A56U | 0.17
156 | A20G U48C U69A | 0.22
157 | A20G U49C U66C A77G | 0.13
158 | A20G U51A A57G | 0.31
159 | A20G U51A G52A U58A G63A A77C | 0.38
160 | A20G U51A U54A | 0.82
161 | A20G U51A U60C A65U U74C | 0.25
162 | A20G U51C A57U U72C U80C | 0.33
163 | A20G U51C U72C C79A | 1.05
164 | A20G U54A U80C | 1.13
165 | A20G U54C A56G A75G | 0.42
166 | A20G U54G G70A U78C | 0.27
167 | A20G U58C U60A | 0.11
